# Measurements taken from PMC4336329 (PLoS ONE, 2015).
# The whole screen tested about 310,000 compounds, of which about 2,200 (0.71%) showed an effect of 50% or more. The effect is printed as a negative number. Some of the results follow.
# Molecular target: human ether-à-go-go-related gene (hERG) potassium channel (human, UniProt Q12809)
# Assay: primary screen, population patch clamp on CHO cells stably expressing hERG
# Chain of human ether-à-go-go-related gene (hERG) potassium channel (Q12809 whole entry, looked up): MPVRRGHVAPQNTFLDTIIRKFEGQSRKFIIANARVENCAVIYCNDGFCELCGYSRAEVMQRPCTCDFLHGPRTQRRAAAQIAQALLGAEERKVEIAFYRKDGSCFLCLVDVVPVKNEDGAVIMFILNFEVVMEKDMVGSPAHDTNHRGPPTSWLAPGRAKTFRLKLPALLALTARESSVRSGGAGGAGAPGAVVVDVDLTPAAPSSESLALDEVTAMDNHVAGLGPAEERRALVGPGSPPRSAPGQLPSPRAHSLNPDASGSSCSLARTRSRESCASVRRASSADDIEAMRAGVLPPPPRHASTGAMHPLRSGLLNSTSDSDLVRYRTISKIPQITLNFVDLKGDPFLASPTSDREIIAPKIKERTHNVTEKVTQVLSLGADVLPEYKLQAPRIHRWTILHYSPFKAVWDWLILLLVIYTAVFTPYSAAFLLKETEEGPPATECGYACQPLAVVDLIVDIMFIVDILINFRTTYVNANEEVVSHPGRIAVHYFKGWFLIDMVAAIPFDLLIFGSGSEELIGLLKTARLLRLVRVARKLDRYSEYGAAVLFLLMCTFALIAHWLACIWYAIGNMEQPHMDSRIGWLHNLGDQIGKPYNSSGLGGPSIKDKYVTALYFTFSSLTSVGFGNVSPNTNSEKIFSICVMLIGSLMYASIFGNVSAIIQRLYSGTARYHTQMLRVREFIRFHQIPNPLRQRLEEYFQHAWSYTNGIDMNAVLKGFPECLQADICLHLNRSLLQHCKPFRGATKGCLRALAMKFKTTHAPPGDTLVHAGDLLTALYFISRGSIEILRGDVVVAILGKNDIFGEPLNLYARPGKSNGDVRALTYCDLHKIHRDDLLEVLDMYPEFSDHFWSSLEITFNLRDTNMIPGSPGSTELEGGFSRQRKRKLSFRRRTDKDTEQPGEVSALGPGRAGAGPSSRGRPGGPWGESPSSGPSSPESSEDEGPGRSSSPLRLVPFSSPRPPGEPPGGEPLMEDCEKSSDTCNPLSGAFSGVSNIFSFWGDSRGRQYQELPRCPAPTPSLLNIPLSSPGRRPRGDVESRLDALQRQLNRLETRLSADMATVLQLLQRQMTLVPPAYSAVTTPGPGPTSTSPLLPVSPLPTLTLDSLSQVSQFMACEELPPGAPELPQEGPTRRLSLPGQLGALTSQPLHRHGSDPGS
row,Compound,"hERG current change (%, negative = inhibition) at 1uM [%]"
1,CC(=O)N1C(=O)C(=C2C=C(C)OC(C)=C2)c2ccccc21,-3.67
2,Cc1nc2nc[nH]n2c(=O)c1C/C=C/c1ccccc1,6.92
3,O=C(CN1CCN(Cc2ccccc2)CC1)Nc1cccc(S(=O)(=O)N2CCCCCC2)c1,-45
4,CN(C(=O)c1ccc2c(c1)OCCO2)c1c(N)n(Cc2ccccc2)c(=O)[nH]c1=O,15.5
5,CCN(CC(=O)NCc1ccc(Cl)cc1)C(=O)/C=C/c1ccc(C#N)cc1,-52.1
6,COc1ccc2[nH]c(=O)c(CNc3ccccc3)cc2c1,29.4
7,N#C/C(=C\c1ccco1)C(=O)Nc1cccc2ncccc12,4.28
8,CCNS(=O)(=O)c1ccc(CCC(=O)NCCC2=CCCCC2)cc1,-4.5
9,CCc1ccc(N2CC(C(=O)NCCC3=CCCCC3)CC2=O)cc1 (stereo not shown),6.39
10,CCOC(=O)c1c(NC(=O)c2cc(-c3cccc(O)c3)on2)sc(C(C)=O)c1C,25.4
11,O=C(NC(=S)N1CCN(c2ccccn2)CC1)c1ccco1,17.2
12,CCOC(=O)C1CCN(C(=O)COc2cccc(C)c2)CC1,11
13,CC(C)c1cc(NCC2CCCO2)n2c(nc3ccccc32)c1C#N (stereo not shown),0.419
14,CC(=O)Nc1ccc(S(=O)(=O)NNC(=O)COc2cc(C)ccc2C(C)C)cc1,4.32
15,O=C(Nc1ccccc1C(=O)N1CCOCC1)c1ccncc1,11.7
16,Cc1cc(C)c(-c2csc(NC(=O)/C=C/c3cccs3)n2)c(C)c1,0.21
17,Cc1cc(Oc2ccc(=O)n(C)n2)nc(Oc2ccc(=O)n(C)n2)n1,7.44
18,O=C(c1ccco1)N(Cc1nc2ccccc2c(=O)[nH]1)C1CCCC1,6.34
19,Cc1ccc(Nc2nc(N)nc(CSc3nnc(-c4ccncc4)o3)n2)cc1,7.95
20,N/C(=N\OC(=O)CC1CCCCC1)c1ccc(Cl)cc1,11.5
21,Cc1ccc(CNC(=O)C2CC(=O)N(CCC(C)C)C2)cc1 (stereo not shown),14.1
22,Fc1ccc(Cn2nnnc2C(c2ccc(Cl)cc2)N2CC=C(c3ccc(F)cc3)CC2)cc1 (stereo not shown),18.5
23,O=S(=O)(NCc1ccc(F)cc1)c1cc(Br)ccc1Br,12.2
24,O=C(Cc1cccc2ccccc12)NN1C(=O)/C(=C\c2cccnc2)SC1=S,11.4
25,CCOC(=O)c1sc(NC(=O)c2ccc(S(=O)(=O)N3CCOCC3)cc2)nc1-c1ccccc1,14.1
26,Cc1ccc(Cn2ccccc2=N)cc1.Cl,11.7
27,CC/C(=N\Nc1ccc([N+](=O)[O-])cc1)c1ccccc1,-13.1
28,O=C(Nc1ccc(N2CCN(C(=O)c3ccco3)CC2)cc1)c1ccccc1,5.94

row,Compound,"hERG current change (%, negative = inhibition) at 1uM [%]"
1,C#CCOCCOCCOCCNc1nc(N2CCN(C(=O)Cn3cc(CC(C)O)nn3)CC2)nc(N2CCN(C(=O)Cn3cc(CC(C)O)nn3)CC2)n1 (stereo not shown),12.5
2,Cc1cccc(N2CCN(C(=O)Cn3sc4nc(C)cc(C)c4c3=O)CC2C)c1 (stereo not shown),10
3,CCOc1ccc(N2CC(C(=O)Nc3ccc(S(=O)(=O)N4CCCC4)cc3)CC2=O)cc1 (stereo not shown),6.22
4,Cc1ccc(-n2cc(-c3ccc([N+](=O)[O-])cc3)[nH]c2=S)c(C)c1,-8.41
5,Cc1ccc(C)c(NC(=O)c2cc(-c3ccccc3O)n[nH]2)c1,13.2
6,CCCNC(=O)c1cccc(COCC(F)(F)C(F)F)c1,-1.67
7,CN1CCN(NC(=O)c2cccc(S(=O)(=O)N3CCCCCC3)c2)CC1.Cl,9.89
8,C=CCn1c(SCCOc2ccc(OC)cc2)nnc1C(C)NC(=O)c1ccc(OC)cc1 (stereo not shown),11.6
9,CC(C)(C)OC(=O)N/N=C\c1ccc(OC(=O)c2ccco2)cc1,10.8
10,CCN1CCN(C2CC(=O)NC2=O)CC1 (stereo not shown),13.5
11,CCOC(=O)c1sc2nc(-c3cccnc3)ccc2c1N,5.59
12,O=C(OC(C(=O)NC1CCCCC1)c1ccc(C(F)(F)F)cc1)c1ccco1 (stereo not shown),-0.698
13,O=C1N(CC(=O)N2CCc3ccccc32)CCN1Cc1ccc(Cl)cc1,4.58
14,NS(=O)(=O)c1ccc(NC(=O)c2cccc3ccccc23)cc1,5
15,COc1cc(CNCCCN2CCOCC2)cc(Br)c1OCc1ccc(Cl)cc1.Cl,8.52
16,O=C(CSc1nc2ccc([N+](=O)[O-])cc2[nH]1)NC1CCCC1,12
17,COc1ccc(S(=O)(=O)N2CCOCC2)cc1NC(=O)CN1C(=O)NC2(CCCC2)C1=O,11.3
18,O=C(COC(=O)c1ccccc1C(=O)c1ccccc1)c1ccco1,0.754
19,CCOC(=O)c1noc(C)c1C(=O)Nc1nc(C)cc(C)n1,8.53
20,CCC(C)(C)n1nnnc1C(c1ccccn1)N1CCN(c2cccc(OC)c2)CC1 (stereo not shown),8.27
21,Cc1ccc(-c2cc(C(F)(F)F)n3nc(C(=O)N4CCN5CCCC5C4)cc3n2)cc1 (stereo not shown),3.14
22,CNc1ccncc1S(=O)(=O)NC,14.6
23,CC1CC(C)CN(CCOCCSc2ccccc2)C1.O=C(O)C(=O)O (stereo not shown),-6.56
24,N#Cc1cc(-c2ccccc2)[nH]c1-c1nccc2ccccc12,9.74
25,O=C(CSc1n[nH]c(-c2ccccc2F)n1)NCC(=O)Nc1ccc(F)c(F)c1F,9.22
26,COc1ccc(S(=O)(=O)Nc2cccc(C)n2)c2ccccc12,6.1
27,CCN(CC)C(=O)CSc1nc2sc3c(c2c(=O)n1-c1ccc(C)cc1)CC(C)(C)SC3,2.39
